# The campaign covered roughly 310,000 compounds. About 11,000 (3.5%) were called active. Inconclusive results, whose numbers are uncertain, are shown with a selection of clear calls. Calls come from the whole dose curve; as a rule, active = well fitted inhibition curve with a large enough effect; inconclusive = small, poorly fitted or top-dose-only effect, or effect the other way; inactive = flat fitted curve, though single readings scatter. No potency is given beside an inconclusive call; the fits are too rough.
# Experiment: VP16 counterscreen qHTS for inhibitors of ROR gamma transcriptional activity;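 note: Gal4-VP16 expression switched on by copper sulfate through the metallothionein promoter; nearly all actives have a fitted effect of over 50% in size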
# Conditions: Drosophila S2 Gal4-VP16 UAS-luciferase, luminescence, 20 h; activity, negative = inhibition: at 53.6 µM (top of the series)
# % is set by controls: 0 for no effect and ±100 for the full control effect; potency is the fitted concentration of half-maximal effect; tags give direction and shape of the fitted curve.
Structure (SMILES),Potency,"activity, negative = inhibition"
COc1ccccc1/C=C/c1ccc2cccc(O)c2n1,"inconclusive [inhibitor, single point]",
Cc1cccc(C)c1NC1=NC(=S)N(c2ccccc2)C12CCOC(C)(C)C2 (stereo unspecified),"inconclusive [inhibitor, single point]",
CCN1CCN(C(=O)/C(C#N)=C/c2ccc(OC(F)F)cc2)CC1,inactive,
COc1ccc(OC)c(NC(=S)NCc2ccccc2OC)c1,,inactive: -7.12% [at 10 µM]
O=C(CCc1ccccn1)NC1CCCc2c1cnn2-c1ccc(F)cc1F (stereo unspecified),inactive,
CC1(C)CC(=O)c2sc(NC(=O)c3ccco3)nc2C1,"inconclusive [inhibitor, single point]",
CCc1ccc(OCCNC(=O)c2ccccc2SCc2ccccc2)cc1,inactive,
COC(=O)c1c(NC(C)=O)sc2c1CCCC2,inactive,
CCN1/C(=C\C(C)=O)Sc2ccc(OC)cc21,inactive,
CC(NC(=O)CCc1nnc(C2(c3ccc(Cl)cc3)CCC2)o1)C1CC1 (stereo unspecified),"inconclusive [activator, single point]",
O=S(=O)(c1cccc(-c2nc3n(n2)Cc2ccccc2-3)c1)N1CCCCC1,"inconclusive [inhibitor, partial curve]",
COc1ccc2c(c1)OC/C(=C/c1ccc(O)c(O)c1)C2=O,"inconclusive [activator, single point]",
CCc1ccc(NC(=O)c2cnn3ccccc23)cc1,"inconclusive [inhibitor, partial curve, poor fit]",
COc1ccc(NC2CCCN(C(=O)COc3ccc(Cl)cc3C)C2)cc1OC (stereo unspecified),"inconclusive [activator, single point]",
Clc1ccc(-c2nnc(SCc3ccon3)o2)c(Cl)c1,"inconclusive [inhibitor, partial curve]",
Cc1cc(C)n(-c2nc(-n3nc(C)cc3C)c3c4c(sc3n2)COC(C)(C)C4)n1,active: 12.6 µM,
CC(=O)Nc1ccc(NCc2cccs2)cc1,"inconclusive [inhibitor, single point]",
CC1(C(=O)NNC(=S)NCC2CCCO2)CC1(Cl)Cl (stereo unspecified),"inconclusive [inhibitor, single point]",
COc1cc(OC)cc(C(=O)NC(=S)N2CCCCCC2)c1,active: 1.12 µM,
Cc1cc(NNC(=O)c2cccc(C(F)(F)F)c2)nc2c1c(C)nn2C,"inconclusive [inhibitor, single point]",
O=C(NNC(=O)c1nn(-c2ccc(F)cc2)ccc1=O)c1ccc(C(F)(F)F)cc1,inactive,
CCOC(=O)COc1ccc2c(c1)C(=O)CC1(CCCCC1)O2,inactive,
O=C(Cn1c(=O)oc2cc(S(=O)(=O)N3CCCC3)ccc21)NCc1ccccn1,inactive,
CS(=O)(=O)N(Cc1ccccc1)c1ccccc1C(=O)N1CCN(c2ccccc2)CC1,inactive,
COc1ccc(CNC(=O)Cn2cccc2C(=O)c2ccccc2C)cc1,"inconclusive [inhibitor, full curve]",
CC(C(=O)N1CCOCC1)n1cc([N+](=O)[O-])cn1 (stereo unspecified),"inconclusive [inhibitor, full curve, poor fit]",

Structure (SMILES),Potency,"activity, negative = inhibition"
COc1ccc(/C=c2\s/c(=C\C(=O)C(C)(C)C)[nH]c2=O)cc1O,"inconclusive [inhibitor, single point]",
Cc1ccc(-c2nc(SCC(N)=O)c(C#N)c3c2CCCC3)cc1,inactive,
OCCCNC(=S)Nc1ccc(Nc2ccccc2)cc1,inactive,
COc1c[nH]n(C2CCCCC2)c(=O)c1=O,"inconclusive [inhibitor, single point]",
COc1ccc(C2CC(C(F)(F)F)n3ncc(C(=O)Nc4cccc(O)c4)c3N2)cc1OC (stereo unspecified),"inconclusive [inhibitor, single point]",
CCOC(=O)c1cnc(-n2nc(C)cc2C)nc1Nc1ccc(OC)cc1,active: 2.51 µM,
O=C1CC(c2ccc(Cl)c([N+](=O)[O-])c2)c2ccc3ccccc3c2N1 (stereo unspecified),inactive,
Cc1nn(CCC(=O)Nc2cccc(C#N)c2)c(C)c1S(=O)(=O)N1CCCCC1,inactive,
Cc1noc(C)c1S(=O)(=O)N1CCCC(C(=O)NCc2ccccc2Cl)C1 (stereo unspecified),inactive,
Cc1noc(C)c1C(=O)Nc1nc(C23CC4CC(CC(C4)C2)C3)cs1,active: 22.4 µM,
CCOc1ccc(NC(=O)c2sc(N3CCOCC3)nc2-c2ccccc2)cc1,inactive,
O=C(CSc1nnc(NC(=O)c2cccc(Br)c2)s1)NCC1CCCO1 (stereo unspecified),inactive,
COc1ccc(C(=O)NC(=S)N2CCCCC2c2cccnc2)cc1OC (stereo unspecified),active: 17.8 µM,
COc1ccc(CCNC(=O)C(=O)NCc2ccccc2)cc1OC,inactive,
CCC1CCCCN1CCn1c(=S)[nH]c2cc(OC)c(OC)cc2c1=O (stereo unspecified),inactive,
O=C(NNS(=O)(=O)c1ccc(F)cc1F)C1Cc2c(ccc3ccccc23)O1 (stereo unspecified),"inconclusive [inhibitor, single point]",
Cc1nn(C)cc1S(=O)(=O)N1CCN(Cc2ccc(F)cc2Cl)CC1,inactive,
Cc1cccc(Cn2c(N3CCN(C)CC3)nc3c2c(=O)n(C)c(=O)n3C)c1,inactive,
CC(NCC(O)COCCC12CC3CC(CC(C3)C1)C2)c1ccccc1 (stereo unspecified),"inconclusive [inhibitor, single point]",
N#CC(c1cccc(C(F)(F)F)c1)(c1ncc(C(F)(F)F)cc1Cl)N1CCOCC1 (stereo unspecified),"inconclusive [inhibitor, single point]",
COc1ccc(CCNC2CC(=O)N(CCc3ccc(OC)c(OC)c3)C2=O)cc1OC (stereo unspecified),inactive,
Cc1cc(C(=O)N/N=C/c2cc(Cl)cc([N+](=O)[O-])c2O)n[nH]1,"inconclusive [inhibitor, single point]",
COc1ccc(NS(=O)(=O)c2ccc(N3CCN(CCO)CC3)c([N+](=O)[O-])c2)cc1,"inconclusive [inhibitor, single point]",
O=S(=O)(Nc1ccc2ccccc2c1)c1ccccc1,inactive,
Cc1nc2ccccc2n1Cc1ccc(Cl)cc1,active: 10 µM,
CC(=O)C1=C(O)C(=O)N(c2ccc(Br)cn2)C1c1ccc(F)cc1 (stereo unspecified),"inconclusive [activator, partial curve]",

Structure (SMILES),Potency,"activity, negative = inhibition"
CSCC[C@H](NC(=O)[C@@H]1Cc2ccccc2CN1)C(=O)Nc1ccc2c(c1)OCCO2,inactive,
CCN(CC)C(=O)c1ccc(C(=O)c2c(C)cc(C)cc2C)cc1,"inconclusive [inhibitor, single point]",
O=S(=O)(NC1CC(NS(=O)(=O)OCC(Cl)(Cl)Cl)C2CCCCC12)OCC(Cl)(Cl)Cl (stereo unspecified),"inconclusive [inhibitor, single point]",
COc1cccc(N2CCN(C(=S)Nc3ccc(C)cc3C)CC2)c1,inactive,
Cc1cccc(N(Cc2cc(=O)[nH]c3ccccc23)C(=O)CCl)c1,"inconclusive [inhibitor, single point]",
CNC(=S)N1N=C(c2ccc(OC)cc2)CC1c1ccc(N(C)C)cc1 (stereo unspecified),"inconclusive [inhibitor, single point]",
CC(C1CC2CCC1C2)N1CC(O)=C(c2nc3ccccc3[nH]2)C1=N (stereo unspecified),"inconclusive [inhibitor, single point]",
Cc1ccc2[nH]c3c(N4CCN(Cc5ccc6c(c5)OCO6)CC4)ncnc3c2c1,active: 10 µM,
Cn1c(=O)n(C)c2cc([N+](=O)[O-])c(N3CCN(S(C)(=O)=O)CC3)cc21,inactive,
NC(=S)N=Nc1c(O)n(CCCl)c2ccc(Cl)cc12,active: 3.55 µM,
CSc1nc2ccc(NC(=O)c3ccccn3)cc2s1,"inconclusive [inhibitor, partial curve]",
CCOC(=O)c1c(-c2ccccc2)oc2ccc(OCC(O)CNCCN(C)C)cc12 (stereo unspecified),"inconclusive [inhibitor, single point]",
C=CCOc1c(Br)cc(CNc2ccc(NC(=O)CCC)cc2)cc1OCC,inactive,
Cc1ccc(C)c(NC(=O)c2nc(Cl)ccc2Cl)c1,"inconclusive [activator, single point]",
O=C(N/N=C/c1cc([N+](=O)[O-])ccc1O)C1CCCCC1,active: 2.51 µM,
CCCCCn1c(N(C)Cc2ccccc2)nc2c1c(=O)[nH]c(=O)n2C,"inconclusive [inhibitor, single point]",
CCOC(=O)C1=C(C)N(CC)C(=S)NC1c1ccccc1OC(F)F (stereo unspecified),"inconclusive [inhibitor, single point]",
N#C/C(=C\c1cccc(NC(=O)c2ccccc2Cl)c1)C(=O)NCCc1ccccc1,"inconclusive [inhibitor, single point]",
O=C(Cn1nnc2ccccc2c1=O)NC1CCCCC1,"inconclusive [activator, single point]",
CCCCc1ccc(/C(C)=N/Nc2cc(N3CCOCC3)nc(C)n2)cc1,"inconclusive [inhibitor, single point]",
CC1CCCN(C(=O)COc2ccc(Nc3ccccc3)cc2)C1 (stereo unspecified),inactive,
CN(C(=O)c1ccco1)c1nnc(C23CC4CC(CC(C4)C2)C3)s1,"inconclusive [inhibitor, single point]",
O=C(Nc1ccccc1)/C(=C/c1cccc(Br)c1)NC(=O)c1ccco1,"inconclusive [inhibitor, partial curve]",
O=C(c1ccco1)N1CCN(c2nc3ccccc3c(=O)n2-c2ccccc2)CC1,"inconclusive [inhibitor, single point]",

# From PubChem BioAssay AID2546 (National Center for Advancing Translational Sciences (NCATS), 2010)
